This passage reports self-cleavage results from the RNAGym collection of RNA variant scans (doi:10.1093/nar/gkz1192).

Read counts are not given, so values of variants with three or more changes are uncertain.

Sequences and labels used below:
B1: CPEB3 Ribozyme (parent)
chain: UAACAGGGGGCCACAGCAGAAGCGUUCACGUCGCAGCCCCUGUCAGAUUCUGGUGAAUCUGCGAAUUCUGCUGUAUAUCUC

The variants in the data set derive from B1. As to the kind of experiment: self-cleavage, relative activity (ratio to wild type); higher = more cleavage; in vitro, sequencing. The essentials: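 Relative activity compares each variant's cleaved/total read fraction with that of the unmutated ribozyme. To get these fractions, barcoded CPEB3 ribozyme libraries from rounds of error-prone PCR were transcribed with T7 RNA polymerase for 5 hours at 37°C and then given 15 min of DNase I treatment before EDTA was added. The RNAs were reverse transcribed with template switching and sequenced on Illumina, and DNA sequencing linked barcodes to variants. A minimum of 5 reads applied, and three batches were averaged.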
U49A A56G A64U U69A A77G U80C: the self-cleavage was 0.13.

In the case of A56C A65U U74A, the self-cleavage stood at 0.13.

Consider A56U A64G U67C U69C, for which the self-cleavage worked out at 0.23.

Regarding U48A A56U A77G U80C, the self-cleavage stood at 0.21.

For the variant U51A A64G A77G, the self-cleavage came out at 0.92.

Turning to U54C A77G U80A, the self-cleavage worked out at 1.17.

For U54C A56G U80C, the self-cleavage stood at 0.52.

On to A56C A65G U66C A77G, for which the self-cleavage worked out at 0.12.

Regarding U49C U60A G70A, the self-cleavage was found to be 0.17.

Regarding U49G U72C U76C, the self-cleavage worked out at 0.64.

As to U54C U60C A77U, the self-cleavage was 0.38.

For the variant C59G U60C U66C C68A A75G, the self-cleavage was found to be 0.15.

As for A47U A56G A57G U60A, the self-cleavage is 0.16.

Regarding U51C U54C A64G U72C U78A U80G, the self-cleavage amounted to 0.59.

Take U58C U60G U78C: the self-cleavage was found to be 0.22.

U51A A57G U74A: the self-cleavage was 0.93.

Turning to A47U A57G A65U G73A, the self-cleavage came out at 0.18.

As to U51C U66C U74C, the self-cleavage turned out to be 0.52.

As for A56U A65G U72G, the self-cleavage came out at 0.22.

For A56U U72C U74A, the self-cleavage came out at 0.97.

In the case of U49C A64U U69A, the self-cleavage amounted to 0.18.

For the variant U51C A56G U58G U60C, the self-cleavage came to 0.12.

As to U58C U66C U80C, the self-cleavage stood at 0.15.

Regarding A56U A57U U72A, the self-cleavage turned out to be 0.3.

U58G A77U U80C: the self-cleavage is 0.51.

As to U60C U69C U72A G73C, the self-cleavage amounted to 0.36.

As for G53A U60A A77G, the self-cleavage was determined as 0.56.

G52A A64G U72C U78C: the self-cleavage came to 1.03.

For the variant A47G U67C U74C A75G, the self-cleavage amounted to 0.29.

Regarding U51G U76C A77G, the self-cleavage amounted to 0.99.

With A56U C62U A75U, the self-cleavage was found to be 0.28.

With U49C A64G U72A U80C, the self-cleavage is 0.19.

Turning to U48C C50U A57U, the self-cleavage came out at 0.41.

On to A47G U66C U80C, for which the self-cleavage was determined as 0.26.

With A56C U74C U76C, the self-cleavage was determined as 1.16.

As to U60A G63U U66C, the self-cleavage was determined as 0.23.

Consider A56G A57G G73A U74A, for which the self-cleavage came out at 0.87.

Take U48G A57G A75U: the self-cleavage came out at 0.67.

Regarding U49C U69A G70A, the self-cleavage is 0.17.

For U48C U54C A56G U66C, the self-cleavage came out at 0.16.

Regarding U54A A57G U58A U69A, the self-cleavage was found to be 0.18.

For the variant U49A U67C C68A, the self-cleavage worked out at 0.22.

G52U A64U U80C: the self-cleavage was 0.5.

A57G U66C U67A: the self-cleavage is 0.23.

In the case of U49C G70U A77G, the self-cleavage was determined as 0.13.

As for U58A A64G U72A, the self-cleavage is 0.3.

Regarding U54C U60C U80C, the self-cleavage turned out to be 0.76.

On to U60C A65U U78A, for which the self-cleavage was found to be 0.14.

Take U51C G63A A64G: the self-cleavage is 0.7.

Regarding A47U A56G U60C, the self-cleavage amounted to 0.11.

A56U A75G A77U: the self-cleavage is 0.58.

Regarding U49C U54C U69G, the self-cleavage came out at 0.18.

Regarding U51C U60C U78A, the self-cleavage was 0.58.

Take C50U U60C U66C U80C: the self-cleavage was 0.16.

Turning to U54A A57G A75U, the self-cleavage stood at 1.13.

In the case of U48A U60A U80G, the self-cleavage is 0.16.

With U54A A56U A65G, the self-cleavage was determined as 0.36.

As to U60C A64G U69C, the self-cleavage was determined as 0.43.

For the variant U54A A64G U80C, the self-cleavage is 1.08.

As for U58G U69C U76C U78C, the self-cleavage came to 0.12.

As to A57U U74A U78C, the self-cleavage came out at 1.08.

With G53A U60A U66C, the self-cleavage is 0.41.

On to U49A U51A U66C, for which the self-cleavage is 0.19.

As for U48C U66C U80C, the self-cleavage was 0.13.

As to U58C C62G A65U A77G, the self-cleavage was 0.19.

Turning to U54A U67C U78C, the self-cleavage amounted to 0.31.

In the case of U49C A57G A77G, the self-cleavage is 0.3.

Regarding U51C A56C U58A G73A, the self-cleavage was 0.25.

On to U49A U51C A57G U66A U76A, for which the self-cleavage is 0.17.

With U60C A64G A77G, the self-cleavage is 0.41.

On to U51C A56G U60G, for which the self-cleavage is 0.28.

As to U54A C62A U69C U72G U78C, the self-cleavage is 0.21.

For G52A U60A A64U, the self-cleavage turned out to be 0.16.

Consider U49A U51C G70U, for which the self-cleavage was determined as 0.57.

With A56G A57G U60A C71U, the self-cleavage came out at 0.29.

Consider U48C A65G A77U, for which the self-cleavage turned out to be 0.32.

As for U60C U72A U80A, the self-cleavage worked out at 0.76.

For the variant U48C U58A U60C U72G, the self-cleavage worked out at 0.13.

U48C U58A U78A U80A: the self-cleavage was 0.36.

On to U49C U54C U66C, for which the self-cleavage was 0.16.

In the case of G53A U58C U67C, the self-cleavage was 0.41.

Regarding U48C A65C C71U U78A, the self-cleavage is 0.1.

Regarding U51C A65U U67A, the self-cleavage amounted to 0.45.

For A47U U78C U80C, the self-cleavage was found to be 0.4.

Take G52A G70U A77G U80A: the self-cleavage came out at 0.44.

For the variant U49G U67C U74A, the self-cleavage turned out to be 0.14.

Turning to A57G U69A U72A, the self-cleavage amounted to 0.26.

Consider A56G U69C U80C, for which the self-cleavage stood at 0.45.

With G53A G55A U74C, the self-cleavage was determined as 1.18.

For the variant U60A A65G A75G U78C, the self-cleavage worked out at 0.18.

For the variant U51C A56G G73U, the self-cleavage was found to be 0.75.

In the case of G52A A65G C71A, the self-cleavage is 0.26.

Consider A47G U74C U80A, for which the self-cleavage turned out to be 1.21.

For A56G U60A U66C, the self-cleavage stood at 0.21.

In the case of A56G A57G U69C U72A A77C, the self-cleavage came out at 0.12.

Regarding U49G U51C U76A, the self-cleavage is 0.58.

Regarding U49C G53C U74A, the self-cleavage turned out to be 0.73.

Take G52A U69C A77U: the self-cleavage was 0.92.

Consider A56G U67G A75U U78A, for which the self-cleavage came out at 0.26.

As to U51C A57G A77U, the self-cleavage turned out to be 0.7.

Regarding A56G U58C C81G, the self-cleavage came out at 0.38.

For the variant U60C U67C U69A, the self-cleavage turned out to be 0.45.

Consider U51A G63A U67C U78C, for which the self-cleavage was 0.51.

On to U54C A56G C79G, for which the self-cleavage amounted to 0.89.

With U60C U67A G73A, the self-cleavage was determined as 0.38.

For the variant U51C A65G A77G, the self-cleavage worked out at 0.48.

In the case of U51G U60C U66C, the self-cleavage was determined as 0.17.

Take U54C A64G U72C U74C: the self-cleavage is 0.69.

Regarding A56U U67C U72A, the self-cleavage turned out to be 0.18.

On to U58C U78C C79A, for which the self-cleavage turned out to be 0.82.

With U49C U67C U80C, the self-cleavage amounted to 0.13.

With U51A U72A U76A, the self-cleavage stood at 0.79.

U51C A57G U58C A64G: the self-cleavage worked out at 0.26.

On to C50U U54C U69C, for which the self-cleavage came out at 0.51.

Regarding A57U U78C U80C, the self-cleavage was 0.44.

With A47G U67C U78C, the self-cleavage came out at 0.14.

In the case of A57G U72C U74C, the self-cleavage worked out at 1.35.

In the case of U48C A57G A65G U69C U74C, the self-cleavage came to 0.19.

As to U51A A64U U72C U76C, the self-cleavage is 0.54.

For A57U U67C U72C, the self-cleavage was found to be 0.2.

Consider U49C U67A U80A, for which the self-cleavage came out at 0.1.

For U48C U60C C68U U72C U80C, the self-cleavage turned out to be 0.17.

Regarding U48C U51C U76C, the self-cleavage is 0.4.

With U60A U67G U72C, the self-cleavage was 0.47.

Turning to C50A U54A U80A, the self-cleavage is 1.2.

Regarding U51C U58C U60C, the self-cleavage worked out at 0.33.

Take U49C U66C U78A: the self-cleavage stood at 0.17.

In the case of U54A C59U U60C U69C, the self-cleavage was determined as 0.27.

As to A47G U66A U78C, the self-cleavage came to 0.3.

Turning to U49C G52C G63U U72C, the self-cleavage is 0.52.

For G55A U66A U67G, the self-cleavage amounted to 0.28.

Consider U54C U58A U80A, for which the self-cleavage turned out to be 0.31.

On to U51A U58A U60C U69A U74A U78C, for which the self-cleavage stood at 0.54.

For U48C U51C U72C C79A, the self-cleavage was 0.4.

On to U51C U67C U80C, for which the self-cleavage amounted to 0.52.

Turning to U54C A56U U72C U74A, the self-cleavage amounted to 0.62.

As for U48C U49C U60C U66C U72A U80C, the self-cleavage is 0.15.

Turning to A47U U54C U60C U74C, the self-cleavage was found to be 0.46.

For the variant A56G G73A U80A, the self-cleavage was determined as 1.27.

Regarding U49A U60C U66A U72G, the self-cleavage was determined as 0.42.

For G53C C71U U80C, the self-cleavage came out at 1.21.

Turning to A47U A57G U74C, the self-cleavage stood at 0.23.

Take U54C A56C U60A: the self-cleavage was determined as 0.18.

Take U51C G70A U72C U78C: the self-cleavage stood at 0.51.

As for C59A U60C U72C, the self-cleavage is 0.2.

For G52U U69C U72A, the self-cleavage stood at 0.28.

In the case of U51A U67C G70A U74C, the self-cleavage was 0.32.

As for A56U A64G U66A, the self-cleavage came to 0.18.

In the case of U54G U66C G70A, the self-cleavage is 0.34.

Take U49C A56G U78C: the self-cleavage stood at 1.

Regarding U49A G63A C79A, the self-cleavage amounted to 0.81.

For the variant U48C U67C U72C U76G, the self-cleavage is 0.08.

Take U48C U60C A77G: the self-cleavage worked out at 0.14.

As to G53A U60C A75C, the self-cleavage came to 0.81.

Take U54C U74C U78A: the self-cleavage was found to be 1.23.

U51C U69C G70U: the self-cleavage was 0.54.

On to U48C U49C U51G A64U, for which the self-cleavage came out at 0.06.

In the case of U48C U51A U60C U67C, the self-cleavage came to 0.35.

Take A56G A77U U78C: the self-cleavage came to 0.85.

A56U G63A U76C: the self-cleavage worked out at 0.6.

Take U51A A57G G63A U66C: the self-cleavage was 0.29.

U51C A57U A65G: the self-cleavage stood at 0.36.

As to A57G U58A U69C, the self-cleavage is 0.15.

On to C59A U69C U74A U78C, for which the self-cleavage was determined as 0.23.

Turning to A47G U60C U66C, the self-cleavage came out at 0.21.

As to A56U A57G U78C, the self-cleavage was determined as 0.45.

Regarding U48C A64U A75U, the self-cleavage worked out at 0.28.
